# Source: PubChem BioAssay AID1460 (National Center for Advancing Translational Sciences (NCATS), 2008)
# Among all 270,000 compounds or so, about 5,800 (2.1%) were called active. The inconclusive results got no clear call from the source; some entries with a clear call stand among them for comparison. The call rests on the fitted dose curve; in most records, active means well fitted inhibition curve with a large enough effect; inconclusive means small, poorly fitted or top-dose-only effect; inactive means flat fitted curve, though single readings scatter. Where the call is inconclusive, the potency comes from a doubtful curve fit.
# Target: Microtubule-associated protein tau (Homo sapiens) (UniProt P10636)
# UniProt P10636, sequence (P10636 whole entry, looked up): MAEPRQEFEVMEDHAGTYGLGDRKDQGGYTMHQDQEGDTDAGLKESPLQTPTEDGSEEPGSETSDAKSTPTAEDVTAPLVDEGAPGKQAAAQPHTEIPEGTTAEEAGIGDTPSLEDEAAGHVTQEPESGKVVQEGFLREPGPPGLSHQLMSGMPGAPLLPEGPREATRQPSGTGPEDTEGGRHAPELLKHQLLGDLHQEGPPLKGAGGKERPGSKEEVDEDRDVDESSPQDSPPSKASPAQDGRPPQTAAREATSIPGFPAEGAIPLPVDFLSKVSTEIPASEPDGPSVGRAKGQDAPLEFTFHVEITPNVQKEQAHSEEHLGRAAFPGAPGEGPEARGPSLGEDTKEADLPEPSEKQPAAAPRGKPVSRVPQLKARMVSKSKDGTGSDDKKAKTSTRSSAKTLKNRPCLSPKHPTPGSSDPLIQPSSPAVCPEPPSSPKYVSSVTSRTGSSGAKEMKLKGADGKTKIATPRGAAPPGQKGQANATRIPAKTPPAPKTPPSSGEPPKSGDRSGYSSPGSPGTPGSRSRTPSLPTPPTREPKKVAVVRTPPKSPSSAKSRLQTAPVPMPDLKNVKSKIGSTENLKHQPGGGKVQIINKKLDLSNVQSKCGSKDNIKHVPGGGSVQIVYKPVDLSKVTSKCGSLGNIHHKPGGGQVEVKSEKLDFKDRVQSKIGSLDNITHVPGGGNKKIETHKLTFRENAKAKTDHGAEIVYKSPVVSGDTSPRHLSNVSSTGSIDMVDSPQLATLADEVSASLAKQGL
# Assay: qHTS for Inhibitors of Tau Fibril Formation, Thioflavin T Binding; further: nearly all actives have a fitted effect of over 55% in size
# Conditions: recombinant tau K18 P301L (four-repeat tau fragment), heparin-induced fibrillization, ThT fluorescence; series mostly up to 57.4 µM; activity, negative = inhibition: at the top concentration
# How it was run: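 Aggregation was driven by heparin (20 uM final) acting on recombinant tau […] bearing P301L in 100 mM sodium acetate pH 7; fibrils were detected with Thioflavin T.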
# On the % scale 0 is the no-effect control and ±100 the full control effect; potency means the concentration at half of the fitted maximal effect; tags describe the fitted curve by direction and shape.
Compound,"activity, negative = inhibition",Potency
Cc1ccc(Cn2c(CN3CCC(C(=O)NCCc4ccccc4)CC3)cc3ccccc32)cc1,inactive: -3.02%,
S=C(NCc1ccco1)NCC(c1ccco1)N1CCCCC1 (stereo not drawn),,"inconclusive: 25.1 µM [inhibitor, partial curve]"
CN=C(C)c1c(O)c2ccccc2oc1=O,,"inconclusive: 3.55 µM [inhibitor, partial curve, poor fit]"
CCOc1ccc(CCNC(=O)c2ccc(-n3c(C)cc4c3CCC(C)C4)cc2)cc1OCC (stereo not drawn),,"inconclusive: 15.8 µM [inhibitor, single point]"
CCN1C(=O)/C(=C/C=C2\C=CN(CC)c3ccccc32)SC1=S,,active: 2.24 µM
CC1=C(C(=O)Nc2ccc(C)cc2Cl)C2(CCCCCC2)OC1=O,inactive: -7.22%,
COCCCN1C(=O)c2ccc(C(=O)Nc3cccc(OC)c3)cc2C1=O,inactive: -3.79%,
Cc1ccc(C)c2sc(N3CCN(C(=O)C(C)(C)C)CC3)nc12,,"inconclusive: 22.4 µM [inhibitor, single point]"
COc1cc(C(=O)Nc2ccc(C(C)=O)cc2)c(Br)c(OC)c1OC,,"inconclusive: 11.2 µM [inhibitor, partial curve]"
CCOC(=O)N1CCN(C(=O)CSCC(=O)Nc2nc(-c3ccccc3)cs2)CC1,,"inconclusive: 7.94 µM [inhibitor, partial curve]"
O=C(c1cc2ncccn2n1)N1CCc2c([nH]c3ccccc23)C1c1ccccc1F (stereo not drawn),inactive: -10.9%,
C/C=C\C=C/C(=O)Nc1cccc(C2=NOC3(C2)C[C@H](C(N)=O)N(C(=O)Cc2ccc([N+](=O)[O-])cc2)C3)c1 (stereo partly drawn),,"inconclusive: 15.8 µM [inhibitor, partial curve]"
Cc1cc(SCC(=O)c2ccc3c(c2)OCO3)nc2ccccc12,,"inconclusive: 7.94 µM [inhibitor, partial curve]"
COc1ccccc1C(=O)Nc1ccc(OCc2cc(=O)n3ccsc3n2)cc1,,"inconclusive: 1.78 µM [inhibitor, full curve]"
O=C(Nc1cccc(-c2cn3ccccc3n2)c1)c1cc2ccccc2oc1=O,,"inconclusive: 7.08 µM [inhibitor, partial curve]"
N#C/C(=C/c1ccc(O)c(O)c1)C(=O)OC/C=C/c1ccccc1,,active: 11.2 µM
COc1ccc(-n2nnnc2SCC(=O)c2cc3ccccc3o2)cc1,,"inconclusive: 15.8 µM [inhibitor, partial curve]"
COc1cc(/C=N/Nc2nnc3c(n2)[nH]c2ccccc23)ccc1O,,active: 0.708 µM
Cc1ccc(NC(=O)CN(C)S(=O)(=O)c2ccc3[nH]c4c(c3c2)CCCC4)c(Cl)c1,inactive: -3.63%,
Cc1cc(C)c2nc(-c3cccnc3)cc(C(=O)Nc3ccc(S(=O)(=O)Nc4onc(C)c4C)cc3)c2c1,,"inconclusive: 39.8 µM [inhibitor, single point]"
CCCc1nc(N2CCOCC2)c2sc(=S)n(-c3ccccc3)c2n1,inactive: -11.6%,
CCN(CC)S(=O)(=O)c1cc(C)ccc1NC(=S)Nc1cccnc1,inactive: 7.86%,
COc1ccc(-n2c(C)cc(C(=O)Cn3nc(C(=O)O)c4ccccc4c3=O)c2C)cc1,inactive: -17.7%,
NS(=O)(=O)c1ccc(N/N=C/c2ccc[nH]2)c([N+](=O)[O-])c1,,active: 7.94 µM
O=C(c1ccco1)n1nc(-c2ccccc2)nc1SCc1ccccc1,,"inconclusive: 28.2 µM [inhibitor, partial curve]"

Compound,"activity, negative = inhibition",Potency
CCCN(C(=O)CCc1nc(-c2ccc(OC)cc2)no1)c1ccccc1F,,"inconclusive: 20 µM [inhibitor, partial curve]"
CCc1cnc2c(c1SCC(=O)c1ccc(OC)cc1)c(=O)n(C)c(=O)n2C,,"inconclusive: 28.2 µM [inhibitor, single point]"
CC1CCN(c2nc(-c3ccco3)c3c(c2C#N)CC(C)(C)OC3)CC1,,"inconclusive: 17.8 µM [inhibitor, single point]"
C/C(=N/N1CCN(c2ccccn2)CC1)c1ccc([N+](=O)[O-])cc1,,"inconclusive: 11.2 µM [inhibitor, partial curve]"
C=CCC(O)c1ccccc1 (stereo not drawn),inactive: -2.4%,
Cc1ccccc1C(=O)Oc1cc(N)n(S(=O)(=O)c2ccccc2)n1,,"inconclusive: 14.1 µM [inhibitor, partial curve, poor fit]"
CC(C)=NO[C@@H](C)CN1CCCc2nc(C)c(C)cc21,inactive: -2.2% [at 11.5 µM],
COc1ccc(N2C=C3C(=O)C(C)(OC(=O)CCc4ccccc4)C(=O)C=C3C=C2c2ccc(C#N)cc2)cc1 (stereo not drawn),,"inconclusive: 5.62 µM [inhibitor, partial curve]"
COc1ccc(/C=C2\SC(=S)N(CC(=O)N3CCN(C)CC3)C2=O)cc1,,"inconclusive: 20 µM [inhibitor, partial curve]"
CC(Sc1nc(N)c2c3c(sc2n1)CSC(C)(C)C3)C(=O)Nc1ccccc1 (stereo not drawn),inactive: -4.29%,
Cc1nnc2n1NC(c1ccc(Cl)cc1)C(C(=O)N1CCC(C)CC1)S2 (stereo not drawn),inactive: -7.22%,
COc1nc(-c2ccccc2)ccc1-c1noc(-c2ccco2)n1,,"inconclusive: 15.8 µM [inhibitor, partial curve]"
COc1cc2c(cc1OC)C(CC#N)=NC(C)(C)C2,inactive: -13.6%,
CCCCNC(=O)C1CCC(CNS(=O)(=O)c2ccc(Cl)cc2)CC1 (stereo not drawn),inactive: -7.52%,
CC(=O)OCC(=O)Nc1ccc([N+](=O)[O-])cc1Cl,inactive: -2.17%,
CN(C)/C=C/C(=O)c1ccc(-c2ccc(Cl)cc2Cl)o1,,"inconclusive: 15.8 µM [inhibitor, partial curve]"
CC1C/C(=C/c2cccn2C)C(=O)/C(=C/c2cccn2C)C1 (stereo not drawn),,"inconclusive: 12.6 µM [inhibitor, partial curve]"
COC(=O)c1coc(-c2ccc(OC)cc2)c1C(=O)OC,,"inconclusive: 35.5 µM [inhibitor, partial curve, poor fit]"
Cc1ccc(C(=O)Nc2nnc(S(=O)(=O)N3CCc4ccccc43)s2)cc1,,"inconclusive: 12.6 µM [inhibitor, partial curve]"
C=CCOc1c(CNc2ccc3[nH]c(=O)[nH]c3c2)cccc1OC,inactive: -2.35%,
O=[N+]([O-])c1cccc(-c2ccc(SCc3cccnc3)nn2)c1,,"inconclusive: 17.8 µM [inhibitor, partial curve]"
CC1=C(C(N)=O)C(c2cccs2)NC(=S)N1 (stereo not drawn),inactive: 5.12%,
CC(C)(C)NC(=O)C(c1ccncc1)N(Cc1ccc(F)cc1)C(=O)c1ccc(-c2ccccc2)[nH]1 (stereo not drawn),,"inconclusive: 11.2 µM [inhibitor, partial curve, poor fit]"
Clc1ss/c(=N\c2ccccn2)c1Cl,,"inconclusive: 17.8 µM [inhibitor, partial curve]"
CC(C)C1CCC(C(=O)NC(Cc2ccccc2)C(=O)O)CC1 (stereo not drawn),inactive: -14.7%,

Compound,"activity, negative = inhibition",Potency
Cc1ccccc1Nc1oc(-c2ccccc2)nc1-c1ccccc1,inactive: -10%,
COc1ccc(-n2nc([N+](=O)[O-])c(=NCCc3ccccc3)n2O)cc1,,"inconclusive: 15.8 µM [inhibitor, partial curve]"
C=CCOc1ccc(/C=N/O)cc1Cl,inactive: -9.56%,
CCn1ncc(C(=O)Nc2ccc(S(=O)(=O)N3CCCC3)cc2)c1C,inactive: -2.8%,
O=C(Nc1cccnc1)c1cc(-c2cccc(Cl)c2)on1,inactive: -17.5%,
C/[N+]([O-])=C/c1c(OCc2ccc(Cl)cc2Cl)ccc2ccccc12,inactive: 0.397%,
O=C(/C=C/c1ccco1)N/C(=C\c1ccccc1)C(=O)NCCc1nc2ccccc2[nH]1,,"inconclusive: 39.8 µM [inhibitor, single point]"
COc1cccc(/C=N/NC(=O)c2cc3c(OC)cccc3[nH]2)c1OC,,"inconclusive: 1.41 µM [inhibitor, full curve]"
CC(=O)c1cc(CN2CCC(N3CCC(C(=O)N4CCCC4)CC3)CC2)cs1,,"inconclusive: 5.62 µM [inhibitor, partial curve]"
Cc1ccc(OCCOc2cccc3ccc(C)nc23)c([N+](=O)[O-])c1,inactive: -14.1%,
CC1(c2ccccc2)CC(C)(C)N2C(=O)/C(=C3\SC(=S)NC3=O)c3cccc1c32 (stereo not drawn),,"inconclusive: 3.98 µM [inhibitor, full curve]"
O=C(Nc1cccc(Br)c1)N1CCC(CN2CCCCCC2)CC1,,"inconclusive: 35.5 µM [inhibitor, single point]"
CCOC(=O)CSc1nc2sc3c(c2c(=O)n1-c1ccccc1)CCC(C(C)(C)C)C3 (stereo not drawn),inactive: -17.1%,
CC(C)Oc1ccc(CNC(=O)c2cccc(NC(=O)N3CCSc4ncccc43)c2)cc1,inactive: -12.7%,
N#CC(C#N)=C1C=C2C=C(N3CCCCC3)CCC2CC1 (stereo not drawn),,"inconclusive: 1.78 µM [activator, full curve]"
CN(CCOc1ccccc1)CC(=O)Nc1cc([N+](=O)[O-])ccc1Cl,,"inconclusive: 31.6 µM [inhibitor, partial curve]"
CCc1ccc2oc(-c3cc(NC(=O)c4cccnc4)cc(C)c3O)nc2c1,inactive: -14.5%,
CCOc1ccc(C(c2c(O)nc(SC)n(C)c2=O)c2c(O)nc(SC)n(C)c2=O)cc1,,"inconclusive: 3.16 µM [inhibitor, full curve]"
CN1C(=O)/C(=C/C=C2/CCCN2C)N(C)C1=S,,active: 20 µM
N#Cc1sc2nc3c(cc2c1N)CCCC3,,"inconclusive: 31.6 µM [inhibitor, single point]"
COc1ccc(CCNC(=O)Cn2ncc3c(=O)oc4ccccc4c32)c(OC)c1,,"inconclusive: 39.8 µM [activator, single point]"
CCOc1ccccc1C(=O)Nc1cccc(-c2ccc3nncn3n2)c1,,"inconclusive: 8.91 µM [inhibitor, full curve]"
Nc1c(S(=O)(=O)O)cc(Nc2ccc(Nc3nc(Cl)nc(Nc4ccc(S(=O)(=O)O)cc4)n3)c(S(=O)(=O)O)c2)c2c1C(=O)c1ccccc1C2=O,,active: 3.98 µM
